Experimental data from PubChem BioAssay (NCI).
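A five-concentration, 48-hour dose response in 96-well plates underlies each endpoint, interpolated linearly between surrounding concentrations. GI50 is the concentration that inhibits growth by half. TGI: concentration producing complete growth inhibition.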

Tested on: NCI-H322M lung
Assay: NCI-60 cell line screen, 48 h

SMILES | GI50 [µM] | TGI [µM]
NS(=O)(=O)c1ccc(N=Nc2c(O)n(CC(=O)Nc3ccccc3Cl)c3ccccc23)cc1 | 2.6 | 7.87
COc1cc2cc(C(=O)N3C[C@@H](CCl)c4c3cc(OC(=O)N3CCN(C)[C@@H]5CSSC[C@@H]53)c3ccccc43)[nH]c2c(OC)c1OC | 0.244 | 4.39
O=C(O)CCCCCCCCCCN1C(=O)/C(=C/c2cnc(-c3ccc(Cl)cc3)s2)SC1=S | 1.85 | 8.25
COc1ccc(-c2cc(-c3cc(OC)c(OC)c(OC)c3)[nH]c(=O)c2C#N)cc1 | 6.69 | > 100
